About 230 (0.21%) of roughly 110,000 compounds showed an effect of 50% or more. Some of the results follow.
molecular target: DPAP1 (Plasmodium falciparum, UniProt Q8IIJ9); test: primary screen, percent inhibition; read by cleavage of a fluorogenic dipeptide substrate; higher = more effect of the substance; parameters: species or system P. falciparum D10 trophozoite lysates; single well
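Note: 30 min substrate incubation versus DMSO and 10 µM JCP410 controls.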

DPAP1, sequence (Q8IIJ9 whole entry, looked up): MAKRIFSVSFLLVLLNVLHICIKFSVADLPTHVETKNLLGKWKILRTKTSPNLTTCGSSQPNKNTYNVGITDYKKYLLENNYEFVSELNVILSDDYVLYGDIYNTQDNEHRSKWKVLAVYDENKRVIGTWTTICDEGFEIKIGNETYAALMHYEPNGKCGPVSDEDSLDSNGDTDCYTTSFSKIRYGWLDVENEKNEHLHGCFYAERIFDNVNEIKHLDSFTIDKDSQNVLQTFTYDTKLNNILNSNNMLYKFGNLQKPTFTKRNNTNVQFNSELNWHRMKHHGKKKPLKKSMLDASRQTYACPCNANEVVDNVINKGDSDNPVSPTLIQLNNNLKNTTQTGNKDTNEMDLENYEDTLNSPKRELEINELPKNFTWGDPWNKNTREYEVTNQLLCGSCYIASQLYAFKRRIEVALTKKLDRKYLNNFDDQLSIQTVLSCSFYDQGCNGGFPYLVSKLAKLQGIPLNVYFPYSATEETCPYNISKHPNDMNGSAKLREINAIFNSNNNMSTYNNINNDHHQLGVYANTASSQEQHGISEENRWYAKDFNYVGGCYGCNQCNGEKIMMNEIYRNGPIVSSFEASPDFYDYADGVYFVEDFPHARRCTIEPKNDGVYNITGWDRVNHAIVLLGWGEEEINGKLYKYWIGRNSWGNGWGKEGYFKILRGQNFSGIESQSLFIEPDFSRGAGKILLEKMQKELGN

| Structure (SMILES) | % Inhibition @ 10 uM [%] |
| --- | --- |
| COc1cc(C2C(C(=O)c3cc4ccccc4o3)=C(O)C(=O)N2Cc2ccco2)ccc1O (stereo not shown) | -1.96 |
| O=C(c1ccccc1NCc1ccccc1O)N1CCOCC1 | 0.661 |
| Cc1c(CN2CCCCC2CO)c(=O)n(-c2ccccc2)n1C (stereo not shown) | 2.1 |
| O=C(c1ccco1)N1CCN(C(=O)c2nc(-c3cccnc3)no2)CC1 | -2.58 |
| Cc1cccc(-n2nc3c(c2NC(=O)c2ccc(C(=O)c4ccccc4)cc2)CS(=O)(=O)C3)c1C | 9.22 |
| O=C1CCCC2=C1C(c1ccc(Br)cc1)Nc1ccc3ncccc3c12 (stereo not shown) | 4.12 |
| Cc1nc2sc3c(c2c2nnc(SCC(=O)c4ccccc4)n12)CCCC3 | -2.65 |
| N#CC1=C(N)N2C(=N)CSC2=C(C(N)=O)C1c1ccccc1 (stereo not shown) | 4.7 |
| COc1ccccc1-c1nc(-c2ccncc2)no1 | 1.4 |
| COc1ccc(CCNCc2c(C(=O)O)c(C)n(Cc3ccc(C)cc3)c2C)c(OC)c1 | -1.92 |
| Cc1ccc(S(=O)(=O)C(c2ccccc2)c2c(C)noc2C)cc1 (stereo not shown) | -3.45 |
| O=C(O)CNC(=O)/C(=C/c1ccccc1)NC(=O)c1ccco1 | -2.54 |
| COc1ccc(S(=O)(=O)N(CC(=O)NC(C)C)c2cccc(Cl)c2)cc1 | 7.42 |
| CCOCCCNC(=O)c1ccc2c(c1)nc(C)n2-c1ccc(F)c(F)c1 | 4.35 |
| OC(COC1CCCCC1)Cn1c2ccccc2c2ccccc21 (stereo not shown) | -0.693 |
| COc1ccccc1C(=O)Nc1ccc(C)cc1Br | 0.214 |
| CN(C)CCC/N=C/C1=C(O)CC(C)(C)CC1=O | 1.25 |
| Cc1cc(NS(=O)(=O)c2ccc(NC(=O)COc3ccc(Br)c(C)c3)cc2)no1 | -1.51 |
| C=CCn1c(SC)nc2c(c1=O)C1(CCCCC1)Cc1ccccc1-2 | 2.92 |
| Cc1cccc(N(CC(=O)N2CCC(C)CC2)S(C)(=O)=O)c1C | -3.03 |
| CN(C(=O)Nc1cccc(C(=O)NC(CSCc2ccccc2)C(=O)NCC#N)c1)[C@@H]1CCN(Cc2ccccc2)C1 (stereo partly shown) | -6.98 |
| Cc1ccc(-c2nnc(NC(=O)Nc3ccc(Cl)cc3)s2)cc1 | 3.48 |

| Structure (SMILES) | % Inhibition @ 10 uM [%] |
| --- | --- |
| O=C(C(NS(=O)(=O)c1ccc(Br)s1)c1ccccc1)N1CCOCC1 (stereo not shown) | -1.92 |
| CCCn1c2ccccc2c2cnn(CC(=O)NCCCN(Cc3ccco3)C3CCCC3)c(=O)c21 | 2.36 |
| Cc1sc2nc(SCC(=O)N3CCOCC3)nc(O)c2c1C | 2.18 |
| O=C(c1cc2cc3ccc(Cl)cc3nc2o1)N1CCCCCC1 | -1.54 |
| COc1ccc(OC)c(NC(=O)Cc2ccc(F)cc2)c1 | 0.843 |
| CCOc1ccc(-n2nnc(-c3nc(-c4ccccc4C)no3)c2N)cc1 | 1.66 |
| COc1ccc(CN2CCC(Cc3ccccc3)CC2)c(OC)c1 | 0.708 |
| Cc1cc2ccccc2n1CCNC(=O)C(c1ccccc1)c1ccccc1 | -4.89 |
| COCCN1C=C(C(=O)OC)C(c2ccccc2OC)C(C(=O)OC)=C1 | 2.09 |
| Cc1cc(Cl)ccc1NC(=O)CN(Cc1ccccc1)S(C)(=O)=O | -3.78 |
| O=C(O)c1ccc(NC(=O)c2nccnc2C(=O)O)cc1 | -2.18 |
| O=C(NCCc1ccc(Cl)cc1)C1CCN(S(=O)(=O)c2cccc3nsnc23)CC1 | -3.35 |
| CC1(C)CC(=O)C(/C=N/CCc2ccc(O)cc2)=C(O)C1 | -7.08 |
| CNC(=O)/C(=C\c1cccc(Oc2ccccc2)c1)NC(=O)c1ccc(C)cc1 | -8.12 |
| O=S(=O)(c1ccccc1)N1CCN(c2ncnc3scc(-c4ccccc4)c23)CC1 | -2.19 |
| COC(=O)c1sc2ccccc2c1C(=O)OC | 3.04 |
| O=C1OC(c2ccccc2)=N/C1=C\N1CCCCC1 | 1.25 |
| Cc1ccc(C)c(OCC(=O)NC(CC(=O)O)c2ccc(C(C)(C)C)cc2)c1 (stereo not shown) | 7.4 |
| O=C(CSCc1cccc(Br)c1)NCc1ccccc1 | -0.0217 |
| COc1cccc(C2NC(C(=O)O)Cc3c2[nH]c2ccccc32)c1OC (stereo not shown) | -5.5 |
| Cc1ccc(CCNc2nn3nnnc3c3ccccc23)cc1 | -0.975 |
| CN1CCN(Cc2ccc(N(C)C)cc2)CC1 | -3.35 |

| Structure (SMILES) | % Inhibition @ 10 uM [%] |
| --- | --- |
| CCOC(=O)c1cnc2sccn2c1=O | 0.708 |
| Cc1cc(C)c(C)c(S(=O)(=O)N2CCC(C(N)=O)(N3CCCCC3)CC2)c1C | 0.00706 |
| CC(=O)c1ccc(NC(=O)CCC(=O)O)cc1 | -6.52 |
| O=C(O)c1ccccc1C(=O)N1CCN(c2ccc(Cl)c(Cl)c2)CC1 | -3.92 |
| Cc1cccc(/N=c2\scc(-c3ccc(Cl)cc3)n2CCO)c1 | -2.36 |
| Cc1ccc(CS(=O)(=O)Cc2ccc(C(=O)NCCc3ccccc3)o2)cc1 | -2.99 |
| Cc1ccccc1-c1noc(CCC(=O)NC2CCCCC2)n1 | -3.12 |
| CN1C(=O)S/C(=C\c2ccccc2F)C1=O | -4.93 |
| O=C(O)c1ccc2nc(-c3ccc(O)cc3)sc2c1 | 6.49 |
| CC1CCC(C(=O)NC(Cc2c[nH]c3ccccc23)C(=O)NCCCOC(C)C)CC1 (stereo not shown) | -2.49 |
| O=C(C1CCN(c2nnc(-n3cccc3)s2)CC1)N1CCN(Cc2ccc3c(c2)OCO3)CC1 | 5.84 |
| COc1ccc(NC(=O)c2cnn3c(C(F)(F)F)cc(-c4cccs4)nc23)c(OC)c1 | 1.67 |
| COc1ccc(-c2ccc(=O)n(CC(=O)NCc3ccco3)n2)cc1 | 3.93 |
| CCCCOc1ccc(N2CC(C(=O)Nc3ccccc3Cl)CC2=O)cc1 (stereo not shown) | 3.29 |
| COc1ccccc1CN1C(=O)c2nccnc2C1=O | 0.66 |
| COCCNc1oc(Cc2cccc3ccccc23)nc1C#N | 0.343 |
| CCC(C)Nc1ncnc2c1cnn2Cc1ccc(Cl)cc1 (stereo not shown) | 3.21 |
| COc1ccc(NC(=O)/C=C\C(=O)O)c([N+](=O)[O-])c1 | 4.42 |
| CN(C)CC/N=c1\c(N)c(O)oc2ccccc12 | 0.986 |
| COc1ccccc1C(=O)N/C(=C/c1ccc(Br)cc1)C(=O)N1CCCC1 | 2.44 |
